# According to PubChem BioAssay AID588342 (National Center for Advancing Translational Sciences (NCATS), 2011):
# Hit rate of the full screen: of about 360,000 compounds, about 25,000 (6.9%) were called active. The inconclusive results got no clear call from the source; some entries with a clear call stand among them for comparison. Calls follow the shape of the dose curve; as a rule, active = well fitted inhibition curve with a large enough effect; inconclusive = small, poorly fitted or top-dose-only effect; inactive = flat fitted curve, though single readings scatter. A potency beside an inconclusive call is a rough fit, not a confirmed value.
# Biological target: Luciferin 4-monooxygenase (Photinus pyralis) (UniProt P08659)
# Test: qHTS profiling assay for firefly luciferase inhibitor/activator using purifed enzyme and Km concentrations of substrates (counterscreen for miR-21 project); also: nearly all actives have a fitted effect of over 55% in size;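 as to activity change, negative = inhibition: plate controls were vehicle for no effect and reference inhibitor for full effect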
# Settings: purified FLuc, luminescence inhibition; activity change, negative = inhibition: at 57.5 µM (top of the series)
# Procedure, shortened: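 Purified P. pyralis luciferase (10nM final) with 10uM D-luciferin and 10uM ATP (Km levels) in 50mM Tris acetate pH 7.5, 10mM Mg acetate, 0.01% Tween-20, 0.05% BSA; qHTS 6-point titration, ~60 µM downward; luminescence read.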
# Potency is read from the fitted curve at half-maximal effect; tags tell the direction and shape of the fitted curve.
# UniProt P08659, sequence (P08659 whole entry, looked up): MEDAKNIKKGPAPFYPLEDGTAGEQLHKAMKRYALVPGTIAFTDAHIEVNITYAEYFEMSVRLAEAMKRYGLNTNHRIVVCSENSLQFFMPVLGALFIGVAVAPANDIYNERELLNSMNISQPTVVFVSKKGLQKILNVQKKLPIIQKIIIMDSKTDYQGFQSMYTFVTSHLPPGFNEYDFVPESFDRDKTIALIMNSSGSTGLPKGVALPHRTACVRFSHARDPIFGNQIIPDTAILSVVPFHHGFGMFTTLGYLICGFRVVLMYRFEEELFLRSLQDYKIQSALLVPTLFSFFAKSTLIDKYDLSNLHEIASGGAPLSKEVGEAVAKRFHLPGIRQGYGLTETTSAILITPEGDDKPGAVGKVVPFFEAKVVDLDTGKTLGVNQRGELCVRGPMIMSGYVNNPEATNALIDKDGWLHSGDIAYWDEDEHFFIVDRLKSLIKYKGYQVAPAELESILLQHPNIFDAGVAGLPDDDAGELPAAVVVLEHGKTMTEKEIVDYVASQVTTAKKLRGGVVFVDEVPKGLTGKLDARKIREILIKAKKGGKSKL
SMILES,Potency,"activity change, negative = inhibition"
Cc1nn(-c2ccccc2)c(N2CCCC2)c1/C=N/NC(=S)Nc1ccccc1F,"inconclusive: 12 µM [inhibitor, partial curve]",
O=C(/C=C/c1ccc(N2CCOCC2)cc1)c1ccccc1,active: 0.953 µM,
CCN(CC)c1ccc(-n2nc3cc(C)c(NC(=O)c4ccccc4F)cc3n2)cc1,"inconclusive: 8.49 µM [inhibitor, full curve]",
Cc1cc(/C=C\c2ccc3cc(N(C)C)ccc3[n+]2C)c(C)n1-c1ccccc1,"inconclusive: 33.8 µM [inhibitor, partial curve, poor fit]",
O=C(c1ccccc1)c1nnc(-c2ccncc2)o1,active: 9.53 µM,
Cc1ccccc1CN1c2ccccc2-c2nc(SCC(=O)NCCc3ccccc3)ncc2S1(=O)=O,,inactive: 1.35%
Cc1ccc2nc(CSc3nnc(NC(=O)COc4ccccc4)s3)cc(=O)n2c1,"inconclusive: 37.9 µM [inhibitor, partial curve, poor fit]",
CCCc1cc(=O)n2[nH]c(-c3ccc(C)cc3)nc2n1,"inconclusive: 19 µM [inhibitor, partial curve]",
Cc1cnc(NCCc2ccccc2)s1,"inconclusive: 23.9 µM [inhibitor, partial curve, poor fit]",
COc1cccc(CNC(=O)C(NS(=O)(=O)c2ccc3nc(C)sc3c2)C(C)C)c1 (stereo not drawn),,inactive: -1.94%
Cc1cc(C(=O)OCC(=O)N2CCN(C(=O)c3ccco3)CC2)c(C)n1-c1ccc(F)cc1,,inactive: -1.97%
O=C1N=C(N2CCCCC2)S/C1=C\c1ccc(Br)cc1,"inconclusive: 10.7 µM [inhibitor, partial curve]",
Cc1cc(C(=O)NNC(=S)NC(=O)/C=C/c2ccccc2Cl)n[nH]1,active: 23.9 µM,
C=CCNc1nc(C(=O)OCC(=O)Nc2ccccc2C(F)(F)F)cs1,,inactive: 0.597%
Cn1c2ccccc2c2cc(/C=N/NC(=O)c3cc(O)ccc3O)ccc21,"inconclusive: 37.9 µM [inhibitor, single point]",
N#Cc1ncc(Cl)c2ccccc12,,inactive: -1.63%
Cc1cnc(NC(=O)c2ccncc2)s1,"inconclusive: 23.9 µM [inhibitor, single point]",
CCCCC1(C)OC(=O)C(=Cc2ccc(N(CC)CC)cc2)C(=O)O1 (stereo not drawn),"inconclusive: 26.9 µM [inhibitor, single point]",
O=C(CSc1nc(-c2ccccc2)c(-c2ccccc2)[nH]1)NCC1CCCO1 (stereo not drawn),"inconclusive: 26.9 µM [inhibitor, partial curve, poor fit]",
CC(C)Cc1cc(C(=O)Nc2cc(Br)ccc2O)no1,active: 12 µM,
NC(=O)CN1CCN(c2nc(-c3ccc(F)cc3)cs2)CC1,"inconclusive: 30.1 µM [inhibitor, single point]",
O=C(CNC(=O)c1cccs1)NCC(=O)OCc1ccc(Cl)cc1Cl,"inconclusive: 21.3 µM [inhibitor, partial curve, poor fit]",
CCc1cccc(-n2nnc(-c3nc(-c4cccs4)no3)c2N)c1,,inactive: -12.9%
COc1ccc(Nc2ncnc3sc(C)cc23)c(OC)c1,"inconclusive: 26.9 µM [inhibitor, partial curve, poor fit]",
COc1ccc(NC(=O)N2CCc3ccccc32)cc1,active: 1.69 µM,
O=C1/C(=C/c2ccccc2)CSc2sccc21,"inconclusive: 23.9 µM [inhibitor, partial curve]",

SMILES,Potency,"activity change, negative = inhibition"
COCCn1c(NCc2ccco2)nc2c1c(=O)[nH]c(=O)n2C,,inactive: -1.69%
Cc1c(OCC(=O)NC(Cc2c[nH]c3ccc(O)cc23)C(=O)O)ccc2c3c(c(=O)oc12)CCC3 (stereo not drawn),"inconclusive: 37.9 µM [inhibitor, partial curve, poor fit]",
COc1cccc(OC)c1C(=O)Nc1cccc(-c2nc3cc(C)cc(C)c3o2)c1,"inconclusive: 7.57 µM [inhibitor, full curve]",
CCC(CNC(=O)c1c(C)nn(-c2ccccc2)c1Cl)c1ccccc1 (stereo not drawn),,inactive: 3.34%
Cc1ncc(CO)c(/C=N/NC(=O)c2cc(Br)ccc2O)c1O,"inconclusive: 19 µM [inhibitor, partial curve]",
Cc1ccc(OCc2ccc(C(=O)N3CCCC3)o2)c([N+](=O)[O-])c1,"inconclusive: 23.9 µM [inhibitor, partial curve, poor fit]",
Clc1cccc(OCc2nnc(-c3ccccc3Br)o2)c1,"inconclusive: 23.9 µM [inhibitor, single point]",
N/C(=N\OC(=O)c1cccc(Br)c1)c1ccccn1,active: 0.426 µM,
O=C(Cn1nc(Cc2cccnc2)c2ccccc2c1=O)Nc1cccc(C(F)(F)F)c1,,inactive: -11.6%
CCCCn1nc(NC(=O)c2cccs2)c2cc3ccccc3nc21,active: 23.9 µM,
COC(=O)c1ccc(OCCOc2ccccc2)cc1,active: 15.1 µM,
CN1CCN(C(c2cccc(Br)c2)c2sc3nc(-c4ccco4)nn3c2O)CC1 (stereo not drawn),,inactive: -10.2%
O=C(Cc1csc2ccccc12)NCc1ccccc1F,"inconclusive: 26.9 µM [inhibitor, partial curve]",
CC(C)CNS(=O)(=O)c1ccc(C(=O)Nc2ccc3c(c2)OCCO3)cc1,"inconclusive: 15.1 µM [inhibitor, partial curve]",
Cc1nc(-c2ccc(S(=O)(=O)NCc3cccnc3)s2)cs1,,inactive: 5.4%
CCNC(=S)Nc1ccc(Cc2nc3ccccc3[nH]2)cc1,,inactive: -1.33%
Cc1cc(NC(=O)c2ccc3nc(C)sc3c2)no1,"inconclusive: 10.7 µM [inhibitor, partial curve]",
COc1cc(/C=C2/SC(=Nc3ccc(O)cc3)NC2=O)ccc1O,"inconclusive: 15.1 µM [inhibitor, partial curve]",
Cc1ccc(NC(=O)Cn2c(C)cc(C)c(C#N)c2=O)cc1F,,inactive: -2.43%
OCc1ccccc1N=c1ssnc1Cl,"inconclusive: 9.53 µM [inhibitor, partial curve]",
Cn1c(SCC(=O)NC2CC2)nnc1-c1cccs1,"inconclusive: 7.57 µM [inhibitor, partial curve, poor fit]",
O=C1/C(=C/c2cccnc2)Cc2ccc(Cl)cc21,active: 12 µM,
Cc1cc(/C=N/n2cnnc2)c(C)n1-c1ccc(OCc2ccc(Cl)cc2Cl)cc1,"inconclusive: 21.3 µM [inhibitor, partial curve, poor fit]",
COc1cccc2sc(Nc3nnc(-c4cccs4)o3)nc12,active: 4.78 µM,
O=C(Nc1ccc2c(c1)OCO2)C1CCCN(c2nc3ccccc3s2)C1 (stereo not drawn),"inconclusive: 37.9 µM [inhibitor, single point]",
C=C(C)CNC(=O)c1ccc2nc(Cc3ccc(OC)cc3)oc2c1,active: 10.7 µM,

SMILES,Potency,"activity change, negative = inhibition"
c1ccc(-c2noc(CC3CCCCC3)n2)nc1,active: 9.53 µM,
O=C(CSc1ncnc2ccccc12)Nc1cc(S(=O)(=O)N2CCCCC2)ccc1Cl,"inconclusive: 9.53 µM [inhibitor, partial curve, poor fit]",
COC(=O)c1ccccc1NC(=O)CSCC(=O)Nc1ccccc1,,inactive: 3.91%
O=C(O)c1c(NC(=O)N2CCOCC2)sc2c1CCCC2,"inconclusive: 37.9 µM [inhibitor, single point]",
CC(C)CCn1c(C(C)O)nc2ccccc21 (stereo not drawn),,inactive: 7.26%
CCN(CC)C(=O)c1cc(Cl)ccc1NC(=O)c1ccco1,,inactive: -2.76%
CC1=C(C(=O)Nc2c(C)cc(C)cc2C)C2(CCN(C(C)C)CC2)OC1=O,,inactive: 0.578%
CC(C)(C)c1ccc(C(=O)N2CCC(C(=O)NC3CCCCCC3)CC2)cc1,"inconclusive: 26.9 µM [inhibitor, single point]",
O=C(NCCOc1ccccc1)c1ccccc1NC(=O)C1CCCO1 (stereo not drawn),"inconclusive: 26.9 µM [inhibitor, single point]",
CC(C)(C)NC(=O)CON=C1c2ccccc2-c2ccccc21,"inconclusive: 37.9 µM [inhibitor, partial curve, poor fit]",
Cc1ccc(-n2nc3cc(C)c(N)cc3n2)cc1,active: 0.269 µM,
O=C(N/N=C\c1ccncc1)c1ccccc1O,active: 9.53 µM,
Cc1ccc(NC2=NCC(Cc3ccc(Br)cc3)S2)cc1 (stereo not drawn),"inconclusive: 33.8 µM [inhibitor, partial curve, poor fit]",
CC(C)NC(=O)C(=O)N/N=C/c1ccco1,,inactive: 5.52%
CC(C)NC(=O)CSc1nc2ccccc2nc1N1CCCCC1,,inactive: -17.6%
COc1ccc(S(=O)(=O)N2CCOCC2)cc1NC(=O)c1cc(C)oc1C,,inactive: 3.93%
Nc1sccc1C(=O)c1ccc(Cl)cc1,"inconclusive: 9.53 µM [inhibitor, partial curve, poor fit]",
COCCCNC(=O)COC(=O)c1ccc(-c2nc3ccccc3s2)s1,active: 5.36 µM,
Cc1ccc(S(=O)(=O)CCc2nc3ccccc3[nH]2)cc1,,inactive: 1.71%
NC(=O)CC(NC(=O)c1cccc(Br)c1)c1ccc(NC2CCN(Cc3ccccc3)CC2)c([N+](=O)[O-])c1 (stereo not drawn),,inactive: 7.14%
O=C(CCC1CCCC1)NNC(=O)c1ccccc1O,"inconclusive: 21.3 µM [inhibitor, single point]",
CCc1csc(CNC(=O)C2CCC(=O)N(Cc3cccc(F)c3)C2)n1 (stereo not drawn),,inactive: 4.07%
COc1cc(NC(=S)N2CCC(C(N)=O)CC2)c(OC)cc1Cl,,inactive: -1.85%
Brc1ccccc1/C=N/Nc1ccccn1,"inconclusive: 2.39 µM [inhibitor, partial curve, poor fit]",
CCOc1ccc(C(=O)NCCc2sc(-c3ccc(C)cc3)nc2C)cc1,"inconclusive: 15.1 µM [inhibitor, partial curve]",
COc1ncccc1-c1nnn(-c2ccccc2)n1,active: 3.38 µM,
